Source: patent US20240052055A1 (SIMCERE ZAIMING PHARMACEUTICAL, published 2024)

B1: S001-NB152-72-2 VHH-hFc (Fc fusion)
chain: QVQLVESGGGLVQAGGSLRLSCAASGSILSITAMNWHRQAPGKERELVASITNGGRTNYADSVKGRFTISRDRAKGTLYLQMNNLKPEDTAVYYCYARRWTGGDRPEYESWGQGTQVTVSS[human IgG1 Fc with changes left out]
notes: VHH recombined with human IgG1 Fc (VHH-hFc); the junction is not described
B2: Tab003 (Y035 scFv-hFc) (Fc fusion)
chain: DIVMTQTPLSLPVITGEPASISCRSSQSLVHSNGNTYLQWYLQKPGQSPQLLIYKVSNRFSGVPDRFSGSGSGTDFTLKISRVEAEDVGVYYCSQSIYVPYTFGQGTKLEIKRGGGGSGGGGSGGGGSEVQLVQSGAEVKKPGASVKVSCKASGYTFSDYEMHWVRQAPGQGLEWMGAIHPGSGDTAYNQRFKGRVTITADKSTSTAYMELSSLRSEDTAVYYCARFYSYAYWGQGTLVTVSA[human IgG1 Fc with changes left out]
notes: Control antibody: VL-(GGGGS)3-VH of Y035 fused to human IgG1 Fc; also called Y035 scFv-human IgG1 Fc
B3: S001-NB150-28(cyno+) VHH-hFc (Fc fusion)
chain: QVQLVESGGGLVQPGGSLRLSCAASGSISTYTMAWYRQAPGEQRESVAAISSGGRTDYIDSVKGRFTISRDNAKNMVYLQMNSLKPEDTAVYYCNSADGLKIGTYYFKGLGWGQGTQVTVSA[human IgG1 Fc with changes left out]
notes: as for B1
B4: S001-NB150-56 VHH-hFc (Fc fusion)
chain: QVQLVESGGGLVRPGGSLRVSCAASGVDISTYTMAWYRQAPGEQRESVAAISTTGRSIYIDAVQGRFTMSRDNAKNTVYLQMNNLKPEDTAVYYCNSADDLKIGTQYFKGLGWGQGTQVTVSS[human IgG1 Fc with changes left out]
notes: as for B1
B5: S001-NB152-101 VHH-hFc (Fc fusion)
chain: QVQLVESGGGLVQAGASLRLSCLGSGRSFGLRAMGWFRQAPGKELEFVAAIGKAGDTTYYTDSVKGRFTISRDNVKNAVYLQMNSLKPEDTAVYVCATAARWEPPTITPGSYRGPGTQVTVSS[human IgG1 Fc with changes left out]
notes: as for B1
B6: VH001 VHH-hFc (Fc fusion)
chain: QLQLVESGGGLVQPGGSLRLSCAASGFTLDVYAIGWFRQAPGKEREGVSYITSGDGIFYADSVKGRFTISRDNAKNTVYLQMNSLKPEDTAVYFCATLKRTTAGGWPIPGRIGGQGTQVTVSS[human IgG1 Fc with changes left out]
notes: as for B1

How the values were obtained:
[1] = target: T1, human GPC3 on cells (HepG2 endogenous; CHO-K1 recombinant clones CHOK1-hGPC3.1C3, 2B5, 3E9) (human, UniProt P51654 25-554); experiment: FACS on HepG2 cells
T1 construct: Full-length human GPC3 (NCBI NM_004484.3) transfected into CHO-K1; HepG2 expresses GPC3 endogenously; also called CHO-K1-human GPC3 cells; HepG2 cells

[2] = target: T2, human GPC3 (Gln25-His559)-His protein (Acro, Cat. No. GP3-H52H4) (human, UniProt P51654 25-559); experiment: ELISA; antibody 1 nM
T2 construct: Bought protein; also called human GPC3-His protein; human GPC3-his protein; not shown: His tag
Protocol: (§1) After incubation for 2 h at 37° C., the plate was washed 3 times with PBS.

[3] = target: T3, monkey GPC3-His protein (Acro, Cat. No. GP3-05225) (monkey, UniProt A5A6P7 25-559); experiment: ELISA; antibody 1 nM
T3 construct: Bought protein; the soluble protein surely lacks signal peptide and C-terminal anchor region; also called monkey GPC3 protein; not shown: His tag
Protocol: as §1

[4] = target: T4, mouse GPC3-His protein (Sino Biological, Cat. No. 50989-M08B) (mouse, UniProt Q8CFZ4 25-558); experiment: ELISA; antibody 1 nM
T4 construct: Bought protein; also called mouse GPC3 protein; not shown: His tag
Protocol: as §1

[5] = target: T2, human GPC3 (Gln25-His559)-His protein …; experiment: ELISA; antibody 0.1 nM
Protocol: as §1

[6] = target: T3, monkey GPC3-His protein (Acro, Cat. No. …); experiment: ELISA; antibody 0.1 nM
Protocol: as §1

[7] = target: T4, mouse GPC3-His protein (Sino …); experiment: ELISA; antibody 0.1 nM
Protocol: as §1

[8] = target: T2, human GPC3 (Gln25-His559)-His protein …; experiment: ELISA; antibody 100 nM
Protocol: as §1

[9] = target: T3, monkey GPC3-His protein (Acro, Cat. No. …); experiment: ELISA; antibody 100 nM
Protocol: as §1

[10] = target: T4, mouse GPC3-His protein (Sino …); experiment: ELISA; antibody 100 nM
Protocol: as §1

[11] = target: T4, mouse GPC3-His protein (Sino …); experiment: ELISA; antibody 0.01 nM
Protocol: as §1

[12] = target: T2, human GPC3 (Gln25-His559)-His protein …; experiment: ELISA; antibody 0.001 nM
Protocol: as §1

[13] = target: T3, monkey GPC3-His protein (Acro, Cat. No. …); experiment: ELISA; antibody 0.001 nM
Protocol: as §1

[14] = target: T4, mouse GPC3-His protein (Sino …); experiment: ELISA; antibody 0.001 nM
Protocol: as §1

[15] = target: T2, human GPC3 (Gln25-His559)-His protein …; experiment: ELISA; antibody 0.0001 nM
Protocol: as §1

[16] = target: T3, monkey GPC3-His protein (Acro, Cat. No. …); experiment: ELISA; antibody 0.0001 nM
Protocol: as §1

[17] = target: T4, mouse GPC3-His protein (Sino …); experiment: ELISA; antibody 0.0001 nM
Protocol: as §1

[18] = target: T5, monkey GPC3 on HEK293T cells (monkey, UniProt A5A6P7 25-554); experiment: FACS on HEK293T-monkey GPC3 cells
T5 construct: Full-length monkey GPC3 (NCBI XP_011739317.1) transfected into HEK293T; also called HEK293T-monkey GPC3 cells; HEK293T-monkey-GPC3

[19] = target: T2, human GPC3 (Gln25-His559)-His protein …; experiment: SPR (Biacore), antibody captured on Protein A chip
Protocol: (§2) The sample and running buffer was HBS-EP+ (10 mM HEPES, 150 mM NaCl, 3 mM EDTA, 0.05% surfactant P20) (GE Healthcare; BR-1006-69). The flow cell was set at 25° C. The sample block was set at 16° C. Both were pretreated with the running buffer. […] The association and dissociation processes of the antibody with the antigen protein were recorded, and finally, the chip was regenerated using Glycine pH 1.5 (GE Healthcare; BR-1003-54). […] The dissociation phase was monitored for up to 600 s and triggered by switching from the sample solution to the running buffer. The surface was regenerated by washing with 10 mM glycine solution (pH 1.5) at a flow rate of 30 μL/min for 30 s. The difference in bulk refractive index was corrected by subtracting the responses obtained from the goat anti-human Fc surface. Blank injections were also subtracted (double reference). To calculate the apparent KD and other kinetic parameters, the Langmuir 1:1 model was used.

[20] = target: T3, monkey GPC3-His protein (Acro, Cat. No. …); experiment: SPR (Biacore), antibody captured on Protein A chip
Protocol: as §2

T4 sequence (Q8CFZ4 25-558 limits assumed): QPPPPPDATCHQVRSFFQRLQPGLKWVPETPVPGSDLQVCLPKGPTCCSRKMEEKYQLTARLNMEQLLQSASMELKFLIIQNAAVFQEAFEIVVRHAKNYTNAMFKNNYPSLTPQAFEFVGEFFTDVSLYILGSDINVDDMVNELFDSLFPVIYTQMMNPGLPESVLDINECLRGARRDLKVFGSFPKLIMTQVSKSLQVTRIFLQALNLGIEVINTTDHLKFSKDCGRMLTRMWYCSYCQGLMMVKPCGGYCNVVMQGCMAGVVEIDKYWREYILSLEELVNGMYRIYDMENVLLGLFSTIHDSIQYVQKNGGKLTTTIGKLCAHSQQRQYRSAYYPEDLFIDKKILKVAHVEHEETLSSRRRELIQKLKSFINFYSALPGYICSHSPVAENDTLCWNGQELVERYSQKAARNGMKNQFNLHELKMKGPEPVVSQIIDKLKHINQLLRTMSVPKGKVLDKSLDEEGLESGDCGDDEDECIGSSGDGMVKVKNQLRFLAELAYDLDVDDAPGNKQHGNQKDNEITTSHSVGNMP

| EC50 [1] [nM] | Max MFI [1] | OD450 [2] | OD450 [3] | OD450 [4] | OD450 [5] | OD450 [6] | OD450 [7] | OD450 [8] | OD450 [9] | OD450 [10] | OD450 [11] | OD450 [12] | OD450 [13] | OD450 [14] | OD450 [15] | OD450 [16] | OD450 [17] | EC50 [18] [nM] | Max MFI [18] | other results | Binder |
| --- | --- | --- | --- | --- | --- | --- | --- | --- | --- | --- | --- | --- | --- | --- | --- | --- | --- | --- | --- | --- | --- |
| 31.7 | 1030 | 2.02 | 2.07 | 2.26 | 1.01 | 1.31 | 1.54 | 2.2 | 2.25 | 2.48 | 0.278 | 0.109 | 0.063 | 0.063 | 0.084 | 0.046 | 0.042 | 0.58 | 24700 | Kd [19]: 11.6 nM; koff [19]: 0.00178 s⁻¹; kon [19]: 153000 M⁻¹ s⁻¹; Kd [20]: 3.23 nM; koff [20]: 0.000754 s⁻¹; kon [20]: 234000 M⁻¹ s⁻¹ | B1 |
| 6.35 | 5170 | 1.89 | 1.93 | 0.046 | 1.44 | 1.43 | 0.047 | 2.2 | 2.28 | 0.073 | 0.046 | 0.268 | 0.077 | 0.049 | 0.107 | 0.048 | 0.048 | 2.85 | 23200 | Kd [19]: 1.36 nM; koff [19]: 0.000358 s⁻¹; kon [19]: 262000 M⁻¹ s⁻¹; Kd [20]: 1.28 nM; koff [20]: 0.000309 s⁻¹; kon [20]: 242000 M⁻¹ s⁻¹ | B2 |
| 0.53 | 2680 | 1.94 | 1.06 | 2.1 | 1.48 | 0.195 | 1.7 | 2.45 | 2.12 | 2.32 | 0.554 | 0.122 | 0.052 | 0.114 | 0.05 | 0.043 | 0.067 | 0.49 | 12800 | Kd [19]: 19.3 nM; koff [19]: 0.00574 s⁻¹; kon [19]: 297000 M⁻¹ s⁻¹; Kd [20]: 5.12 nM; koff [20]: 0.00157 s⁻¹; kon [20]: 306000 M⁻¹ s⁻¹ | B3 |
| 3.19 | 699 | 1.42 | 0.092 | 1.96 | 0.521 | 0.049 | 1.26 | 2.11 | 0.508 | 2.6 | 0.29 | 0.207 | 0.045 | 0.08 | 0.149 | 0.043 | 0.053 | 73.9 | 1920 | Kd [19]: 7.25 nM; koff [19]: 0.000757 s⁻¹; kon [19]: 104000 M⁻¹ s⁻¹; Kd [20]: 4.64 nM; koff [20]: 0.00109 s⁻¹; kon [20]: 236000 M⁻¹ s⁻¹ | B4 |
| 0.35 | 3530 | 2.11 | 2.32 | 0.115 | 1.6 | 1.71 | 0.19 | 2.5 | 2.75 | 0.288 | 0.23 | 0.096 | 0.092 | 0.222 | 0.05 | 0.051 | 0.109 | 0.6 | 19400 | Kd [19]: 11.1 nM; koff [19]: 0.00167 s⁻¹; kon [19]: 151000 M⁻¹ s⁻¹; Kd [20]: 2.66 nM; koff [20]: 0.00048 s⁻¹; kon [20]: 181000 M⁻¹ s⁻¹ | B5 |
| 2.39 | 3510 | 1.95 | 1.91 | 0.07 | 1.47 | 1.47 | 0.066 | 2.35 | 2.35 | 2.18 | 0.05 | 0.241 | 0.086 | 0.051 | 0.051 | 0.048 | 0.052 | 0.23 | 15600 | Kd [19]: 1.66 nM; koff [19]: 0.000443 s⁻¹; kon [19]: 267000 M⁻¹ s⁻¹; Kd [20]: 3.06 nM; koff [20]: 0.00108 s⁻¹; kon [20]: 352000 M⁻¹ s⁻¹ | B6 |
